Assay results as given in paper PMC7177587.
No constants are given. Whether binding was seen depends on the method and setting. In cells and extracts the contact can be indirect. Some entries that bind do so weakly or less than the wild type. Sequences can lack the tags named with a protein.

Experiments:
[1] = biological target: T1, GST fused to MUPP1 PDZ domain 7 (UniProt Q8VBX6); experiment: pull-down; GST-MUPP1-PDZ fusion proteins immobilized on glutathione resin (30 µl) mixed with 1 ml E. coli extract with overexpressed CBD or GlyT2Nrcf1 fusion of the CADM1 motif, 1 hr, room temperature; washed 3x; eluted with 20 mM glutathione (pH 8.0) or SDS sample buffer; 12% gel, Coomassie; only the target purified
T1 sequence: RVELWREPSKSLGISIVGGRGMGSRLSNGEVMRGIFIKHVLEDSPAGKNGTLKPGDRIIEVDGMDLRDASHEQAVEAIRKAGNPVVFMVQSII

[2] = biological target: T2, GST fused to MUPP1 PDZ domain 3 (UniProt Q8VBX6); experiment: as above
T2 sequence: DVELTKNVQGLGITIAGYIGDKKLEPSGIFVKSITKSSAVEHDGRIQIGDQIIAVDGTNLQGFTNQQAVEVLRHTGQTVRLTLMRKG

[3] = biological target: T3, GST fused to MUPP1 PDZ domain 4 (UniProt Q8VBX6); experiment: as above
T3 sequence: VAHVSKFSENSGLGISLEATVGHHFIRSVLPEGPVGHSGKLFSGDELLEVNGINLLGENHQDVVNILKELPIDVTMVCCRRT

[4] = biological target: T4, GST fused to MUPP1 PDZ domain 11 (UniProt Q8VBX6); experiment: as above
T4 sequence: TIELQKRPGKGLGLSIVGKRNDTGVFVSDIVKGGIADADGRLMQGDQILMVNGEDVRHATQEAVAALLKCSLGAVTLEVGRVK

[5] = biological target: T5, GST fused to MUPP1 PDZ domain 5 (UniProt Q8VBX6); experiment: as above
T5 sequence: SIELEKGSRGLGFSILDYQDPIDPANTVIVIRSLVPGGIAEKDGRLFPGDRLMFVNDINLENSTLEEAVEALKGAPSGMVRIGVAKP

[6] = biological target: T6, GST fused to MUPP1 PDZ domain 2 (UniProt Q8VBX6); experiment: as above
T6 sequence: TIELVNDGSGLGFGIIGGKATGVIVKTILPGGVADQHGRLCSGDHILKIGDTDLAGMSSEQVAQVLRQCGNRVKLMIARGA

[7] = biological target: T7, GST fused to MUPP1 PDZ domain 1 (UniProt Q8VBX6); experiment: as above
T7 sequence: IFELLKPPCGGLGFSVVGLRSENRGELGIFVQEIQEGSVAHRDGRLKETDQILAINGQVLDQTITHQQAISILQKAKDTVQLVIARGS

[8] = biological target: T8, GST protein containing the whole cytosolic C‐terminal region of CADM1 (GST‐CADM1C) (mouse) (UniProt Q8R5M8); experiment: pull-down; fusion tags exchanged: GST-CADM1C with CBD protein fused to MUPP1 PDZ domains, proteins overexpressed in bacteria; only the target purified
T8 sequence: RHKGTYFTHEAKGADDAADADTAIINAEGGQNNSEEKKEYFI

[9] = biological target: T9, GST fused to MUPP1 PDZ domain 6 (UniProt Q8VBX6); experiment: pull-down; GST-MUPP1 PDZ domain fusions on glutathione resin with Triton X-100 extract of crude mouse brain synaptosomes (25 mM Tris-HCl, 150 mM NaCl, 1 mM EDTA, pH 7.5, 1% Triton X-100), 3 hr at 20°C; eluted with 20 mM glutathione; immunoblot with anti-CADM1; only the target purified
T9 sequence: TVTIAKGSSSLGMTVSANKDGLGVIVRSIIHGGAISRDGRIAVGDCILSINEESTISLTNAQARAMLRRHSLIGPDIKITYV

[10] = biological target: T2, GST fused to MUPP1 PDZ domain 3; experiment: as above
[11] = biological target: T3, GST fused to MUPP1 PDZ domain 4; experiment: as above
[12] = biological target: T5, GST fused to MUPP1 PDZ domain 5; experiment: as above
[13] = biological target: T6, GST fused to MUPP1 PDZ domain 2; experiment: as above
[14] = biological target: T7, GST fused to MUPP1 PDZ domain 1; experiment: as above

In the case of EKKEYFI [CBD‐EKKEYFI fusion protein containing the CADM1 PDZ motif (EKKEYFI)], the binding [1] is reported as “binds weakly”, the binding [2] is reported as “binds” and the binding [3] is reported as “binds”. For the same binder, the binding [4] was “binds weakly”, the binding [5] was “binds” and the binding [6] was “binds”. For the same binder, the binding [7] was “binds”.

With EKKEYFI [GlyT2Nrcf1‐EKKEYFI fusion protein] the binding [1] was “binds weakly”, the binding [2] was “binds” and the binding [3] was “binds”. For the same binder, the binding [4] was “binds weakly”, the binding [5] was “binds” and the binding [6] was “binds”. The binding [7] was “binds”.

B1: CBD protein fused in‐frame with MUPP1 PDZ domain 1 (domain or fragment, UniProt Q8VBX6 138-225)
chain: IFELLKPPCGGLGFSVVGLRSENRGELGIFVQEIQEGSVAHRDGRLKETDQILAINGQVLDQTITHQQAISILQKAKDTVQLVIARGS
B1 was tested, and the binding [8] was “binds”.

B2: CBD protein fused in‐frame with MUPP1 PDZ domain 2 (domain or fragment, UniProt Q8VBX6 258-338)
chain: TIELVNDGSGLGFGIIGGKATGVIVKTILPGGVADQHGRLCSGDHILKIGDTDLAGMSSEQVAQVLRQCGNRVKLMIARGA
B2 was tested, and the binding [8] was “binds”.

B3: CBD protein fused in‐frame with MUPP1 PDZ domain 3 (domain or fragment, UniProt Q8VBX6 378-464)
chain: DVELTKNVQGLGITIAGYIGDKKLEPSGIFVKSITKSSAVEHDGRIQIGDQIIAVDGTNLQGFTNQQAVEVLRHTGQTVRLTLMRKG
With B3 the binding [8] was “binds”.

B4: CBD protein fused in‐frame with MUPP1 PDZ domain 4 (domain or fragment, UniProt Q8VBX6 546-627)
chain: VAHVSKFSENSGLGISLEATVGHHFIRSVLPEGPVGHSGKLFSGDELLEVNGINLLGENHQDVVNILKELPIDVTMVCCRRT
With B4 the binding [8] was “binds”.

B5: CBD protein fused in‐frame with MUPP1 PDZ domain 5 (domain or fragment, UniProt Q8VBX6 693-779)
chain: SIELEKGSRGLGFSILDYQDPIDPANTVIVIRSLVPGGIAEKDGRLFPGDRLMFVNDINLENSTLEEAVEALKGAPSGMVRIGVAKP
For B5, the binding [8] was “binds”.

B6: CBD protein fused in‐frame with MUPP1 PDZ domain 7 (domain or fragment, UniProt Q8VBX6 1139-1231)
chain: RVELWREPSKSLGISIVGGRGMGSRLSNGEVMRGIFIKHVLEDSPAGKNGTLKPGDRIIEVDGMDLRDASHEQAVEAIRKAGNPVVFMVQSII
B6 was tested, and the binding [8] was “binds weakly”.

B7: CBD protein fused in‐frame with MUPP1 PDZ domain 11 (domain or fragment, UniProt Q8VBX6 1710-1792)
chain: TIELQKRPGKGLGLSIVGKRNDTGVFVSDIVKGGIADADGRLMQGDQILMVNGEDVRHATQEAVAALLKCSLGAVTLEVGRVK
For B7, the binding [8] was “binds weakly”.

B8: native synaptosomal CADM1 (Triton X‐100 solubilized) (protein, UniProt Q8R5M8 48-456)
chain: QNLFTKDVTVIEGEVATISCQVNKSDDSVIQLLNPNRQTIYFRDFRPLKDSRFQLLNFSSSELKVSLTNVSISDEGRYFCQLYTDPPQESYTTITVLVPPRNLMIDIQKDTAVEGEEIEVNCTAMASKPATTIRWFKGNKELKGKSEVEEWSDMYTVTSQLMLKVHKEDDGVPVICQVEHPAVTGNLQTQRYLEVQYKPQVHIQMTYPLQGLTREGDAFELTCEAIGKPQPVMVTWVRVDDEMPQHAVLSGPNLFINNLNKTDNGTYRCEASNIVGKAHSDYMLYVYDPPTTIPPPTTTTTTTTTTTTTILTIITDTTATTEPAVHDSRAGEEGTIGAVDHAVIGGVVAVVVFAMLCLLIILGRYFARHKGTYFTHEAKGADDAADADTAIINAEGGQNNSEEKKEYFI
With B8 the binding [9] was “no binding”, the binding [10] was “no binding” and the binding [11] was “no binding”. For the same binder, the binding [12] was “no binding”, the binding [13] was “binds” and the binding [14] was “no binding”.
